Assay results reported in the supplement of paper PMC3724861.
This is one part of the list.

test system: T1, Caupolican (Caup) homeodomain DNA-binding domain; assay: PBM E-score (8-mer, recovered from the published 9-mer minima) (E-score (dimensionless, -0.5 to 0.5)); Drosophila protein; higher = stronger relative binding preference, active = 0.31 or more
T1 sequence: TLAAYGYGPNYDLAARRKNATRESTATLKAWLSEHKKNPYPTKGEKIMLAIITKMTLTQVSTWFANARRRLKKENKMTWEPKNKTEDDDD
Procedure: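 Protein binding microarray (PBM): in vitro transcribed/translated Caupolican (Caup) homeodomain DNA-binding domain (residues 214-303) applied at 100 nM to a universal 8-mer PBM array (Agilent AMADID 015681). The 8-mer enrichment score (E-score, range -0.5 to 0.5) was computed, and each 9-mer score is the minimum E-score of its two constituent 8-mers. The E-score is the same for a 9-mer and its reverse complement; 0.31 is the stated binding threshold.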

PBM E-score, ≥ 0.144:
AATAAGAT

PBM E-score, ≥ 0.0398:
TCACTGCA

PBM E-score, active:
CATGACAC 0.363, GATATGTA 0.321, ACAAGCAT 0.377

PBM E-score, inactive:
AACGGATG 0.054, CGTCTACA 0.091, CTCTCATA -0.00226, TGGCCGAA -0.0603, GTTCGGTA 0.127, CCCTAAGC -0.169, CAGGGTGA -0.0887, CGTGCGCA -0.137, CAAGTCTG 0.0802, CCAACATA 0.211, CGATGCTA -0.0386, ACTTCTGG 0.0268, ATCTGAAC 0.116, CAGCATTC -0.0312, AGTCGCTC -0.0941, AGCCTACT -0.116, TAACTTGA 0.154, CGTCTTCC -0.0698, GCCATCAA -0.048, AAGCGTCG -0.0819, GTTGCCGA -0.0733, GACCGAGA -0.103, CCCTCCAG -0.268, AACCTCGC -0.0388, ATCGTCCC 0.0273, ACCACAAA 0.0575, CCTTAGAC -0.0508, AATATAAT 0.242, CCGACGAC -0.024, AAGGTGAT 0.0818, CGTGCCAG -0.128, AGGCAGCA -0.0464, CTCCATTA -0.0994, CCCTACTA -0.0232, CAGCAAAC 0.0702, CGGCTCGC -0.209, CATTGAAG 0.0378, TTAGCGAA 0.00184, ATCATTTG 0.103, GGGTAATA 0.112, TGGGTACA 0.175, TAGCGTGA 0.0444, ACTTTTAT -0.0194, CGATACGA 0.0557, AGCCACAG -0.178, TAAACGGA -0.01, CGATGCTC -0.13, ATGCTGAC 0.119, ACAAAAAG 0.0414, CCCCTACC -0.165, CAATTCCA -0.0137, ACTTTGTA 0.199, CGGCCTAC -0.0509, ATCTACAC 0.227, CCCGATAG -0.0763

PBM E-score, ≥ 0.0201:
CCTACGCA

PBM E-score, ≥ 0.14:
GAAGTAGA
